The supplement of paper PMC4967469
A lower IC50 marks a more sensitive line; fits outside the tested doses are given as limits. AUC sums up the same curve from the lowest dose to the 256-fold higher top dose: 1 means no effect, lower means more sensitive. The top dose, if marked as inferred, was calculated from the reported fits. For some assays here: Where an entry number is given, a second screen of the drug exists; the two often differ.

These cell lines were tested with Cc1ccc(-n2nc(C(C)(C)C)cc2NC(=O)Nc2ccc(OCCN3CCOCC3)c3ccccc23)cc1 [BIRB 0796] (assay: Viability of human cancer cell lines after 72 h of drug (GDSC screen)). Conditions: top dose 10 µM; top dose inferred.
Description: (§1)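 Human cancer cell lines in 384-well plates, medium with 10% serum, drug for 72 h over a 256-fold dose range (nine 2-fold or five 4-fold steps up to the top dose). Adherent lines were fixed and stained with the nucleic acid dye Syto60, suspension lines read with resazurin; signal relative to control wells, capped at 0 and 100%. One two-parameter sigmoid per drug and line, fitted in a mixed model over all curves with the slope shared within a line.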

| Cell Line | AUC | IC50 [µM] |
| --- | --- | --- |
| 42-MG-BA (glioma, adherent) | 0.968 | > 10 |
| 201T (lung adenocarcinoma, adherent) | 0.961 | > 10 |
| 647-V (bladder, adherent) | 0.978 | > 10 |
| 5637 (bladder, adherent) | 0.988 | > 10 |
| 23132-87 (stomach, adherent) | 0.97 | > 10 |
| A431 (skin, adherent) | 0.98 | > 10 |
| BFTC-905 (bladder, adherent) | 0.834 | 5.28 |
| BICR78 (head and neck, adherent) | 0.869 | > 10 |
| BxPC-3 (pancreas, adherent) | 0.946 | > 10 |
| C-33-A (cervix, adherent) | 0.966 | > 10 |
| COLO-205 (large intestine, suspension) | 0.988 | > 10 |
| COR-L321 (lung, suspension) | 0.983 | > 10 |
| DU-145 (prostate, adherent) | 0.783 | 4.76 |
| HT-1080 (fibrosarcoma, adherent) | 0.963 | > 10 |
| KMS-11 (myeloma, suspension) | 0.99 | > 10 |
| KP-1N (pancreas, adherent) | 0.976 | > 10 |
| MHH-CALL-2 (B-cell leukaemia, suspension) | 0.996 | > 10 |
| MIA-PaCa-2 (pancreas, adherent) | 0.802 | 5.48 |
| MOLM-16 (acute myeloid leukaemia, suspension) | 0.981 | > 10 |
| MOLT-16 (T-cell lymphoblastic leukaemia, suspension) | 0.992 | > 10 |

| Cell Line | AUC | IC50 [µM] |
| --- | --- | --- |
| NCI-H146 (small cell lung carcinoma, suspension) | 0.994 | > 10 |
| NCI-H647 (non-small cell lung carcinoma, adherent) | 0.984 | > 10 |
| NCI-H835 (lung carcinoid, suspension) | 0.989 | > 10 |
| NCI-H1105 (small cell lung carcinoma, suspension) | 0.982 | > 10 |
| NCI-H1341 (small cell lung carcinoma, suspension) | 0.991 | > 10 |
| NCI-H1693 (lung adenocarcinoma, adherent) | 0.941 | > 10 |
| NCI-H2023 (lung adenocarcinoma, adherent) | 0.972 | > 10 |
| NCI-H2052 (mesothelioma, adherent) | 0.969 | > 10 |
| NCI-H3122 (lung adenocarcinoma, adherent) | 0.987 | > 10 |
| OACM5-1 (oesophagus, semi-adherent) | 0.976 | > 10 |
| PA-1 (ovary, adherent) | 0.977 | > 10 |
| RCH-ACV (B-cell leukaemia, suspension) | 0.973 | > 10 |
| RH-18 (rhabdomyosarcoma, adherent) | 0.981 | > 10 |
| SK-MEL-31 (melanoma, adherent) | 0.913 | > 10 |
| SK-OV-3 (ovary, adherent) | 0.967 | > 10 |
| SNU-61 (large intestine, adherent) | 0.985 | > 10 |
| SUP-B8 (B-cell leukaemia, suspension) | 0.988 | > 10 |
| T47D (breast, adherent) | 0.961 | > 10 |
| TC-YIK (cervix, suspension) | 0.98 | > 10 |

These cell lines were tested with O=C1NC(=O)c2c1c(-c1ccccc1Cl)cc1[nH]c3ccc(O)cc3c21 [Wee1 inhibitor 681640] in the same assay as above. Conditions: top dose 2 µM; top dose inferred.
Description: as §1

| Cell Line | AUC | IC50 [nM] |
| --- | --- | --- |
| 42-MG-BA (glioma, adherent) | 0.948 | > 2000 |
| 201T (lung adenocarcinoma, adherent) | 0.962 | > 2000 |
| 647-V (bladder, adherent) | 0.959 | > 2000 |
| 5637 (bladder, adherent) | 0.923 | > 2000 |
| 23132-87 (stomach, adherent) | 0.968 | > 2000 |
| A431 (skin, adherent) | 0.919 | > 2000 |
| BFTC-905 (bladder, adherent) | 0.873 | 1470 |
| BICR78 (head and neck, adherent) | 0.772 | 895 |
| BxPC-3 (pancreas, adherent) | 0.95 | > 2000 |
| C-33-A (cervix, adherent) | 0.974 | > 2000 |
| COLO-205 (large intestine, suspension) | 0.963 | > 2000 |
| COR-L321 (lung, suspension) | 0.987 | > 2000 |
| DU-145 (prostate, adherent) | 0.572 | 202 |
| HT-1080 (fibrosarcoma, adherent) | 0.852 | 1300 |
| KMS-11 (myeloma, suspension) | 0.979 | > 2000 |
| KP-1N (pancreas, adherent) | 0.982 | > 2000 |
| MHH-CALL-2 (B-cell leukaemia, suspension) | 0.987 | > 2000 |
| MIA-PaCa-2 (pancreas, adherent) | 0.959 | > 2000 |
| MOLM-16 (acute myeloid leukaemia, suspension) | 0.786 | 753 |
| MOLT-16 (T-cell lymphoblastic leukaemia, suspension) | 0.787 | 686 |

| Cell Line | AUC | IC50 [nM] |
| --- | --- | --- |
| NCI-H146 (small cell lung carcinoma, suspension) | 0.981 | > 2000 |
| NCI-H647 (non-small cell lung carcinoma, adherent) | 0.925 | > 2000 |
| NCI-H835 (lung carcinoid, suspension) | 0.964 | > 2000 |
| NCI-H1105 (small cell lung carcinoma, suspension) | 0.974 | > 2000 |
| NCI-H1341 (small cell lung carcinoma, suspension) | 0.992 | > 2000 |
| NCI-H1693 (lung adenocarcinoma, adherent) | 0.97 | > 2000 |
| NCI-H2023 (lung adenocarcinoma, adherent) | 0.929 | > 2000 |
| NCI-H2052 (mesothelioma, adherent) | 0.97 | > 2000 |
| NCI-H3122 (lung adenocarcinoma, adherent) | 0.956 | > 2000 |
| OACM5-1 (oesophagus, semi-adherent) | 0.976 | > 2000 |
| PA-1 (ovary, adherent) | 0.956 | > 2000 |
| RCH-ACV (B-cell leukaemia, suspension) | 0.952 | > 2000 |
| RH-18 (rhabdomyosarcoma, adherent) | 0.975 | > 2000 |
| SK-MEL-31 (melanoma, adherent) | 0.983 | > 2000 |
| SK-OV-3 (ovary, adherent) | 0.942 | > 2000 |
| SNU-61 (large intestine, adherent) | 0.981 | > 2000 |
| SUP-B8 (B-cell leukaemia, suspension) | 0.861 | 1670 |
| T47D (breast, adherent) | 0.975 | > 2000 |
| TC-YIK (cervix, suspension) | 0.987 | > 2000 |

These cell lines were tested with Cc1cccc(-c2[nH]c(C(C)(C)C)nc2-c2ccc3nccnc3c2)n1 [SB-525334] in the same assay as above. Conditions: top dose 20 µM; top dose inferred.
Description: as §1

| Cell Line | AUC | IC50 [µM] |
| --- | --- | --- |
| 42-MG-BA (glioma, adherent) | 0.939 | > 20 |
| 201T (lung adenocarcinoma, adherent) | 0.942 | > 20 |
| 647-V (bladder, adherent) | 0.963 | > 20 |
| 5637 (bladder, adherent) | 0.898 | > 20 |
| 23132-87 (stomach, adherent) | 0.945 | > 20 |
| A431 (skin, adherent) | 0.957 | > 20 |
| BFTC-905 (bladder, adherent) | 0.979 | > 20 |
| BICR78 (head and neck, adherent) | 0.98 | > 20 |
| BxPC-3 (pancreas, adherent) | 0.983 | > 20 |
| C-33-A (cervix, adherent) | 0.781 | 8.35 |
| COLO-205 (large intestine, suspension) | 0.972 | > 20 |
| COR-L321 (lung, suspension) | 0.956 | > 20 |
| DU-145 (prostate, adherent) | 0.968 | > 20 |
| HT-1080 (fibrosarcoma, adherent) | 0.98 | > 20 |
| KMS-11 (myeloma, suspension) | 0.954 | > 20 |
| MIA-PaCa-2 (pancreas, adherent) | 0.985 | > 20 |
| NCI-H647 (non-small cell lung carcinoma, adherent) | 0.969 | > 20 |
| NCI-H1693 (lung adenocarcinoma, adherent) | 0.828 | > 20 |
| NCI-H2023 (lung adenocarcinoma, adherent) | 0.964 | > 20 |
| NCI-H2052 (mesothelioma, adherent) | 0.98 | > 20 |
| NCI-H3122 (lung adenocarcinoma, adherent) | 0.887 | > 20 |
| OACM5-1 (oesophagus, semi-adherent) | 0.906 | > 20 |
| PA-1 (ovary, adherent) | 0.974 | > 20 |
| SK-OV-3 (ovary, adherent) | 0.949 | > 20 |
| SNU-61 (large intestine, adherent) | 0.947 | > 20 |
| T47D (breast, adherent) | 0.889 | > 20 |

Each cell line was assayed with Cc1cc(N2CCOCC2)cc2[nH]c(-c3c(NC[C@@H](O)c4cccc(Cl)c4)cc[nH]c3=O)nc12 [BMS-536924] in the same assay as above. Conditions: top dose 4 µM; screen: GDSC drug entry 1091; top dose inferred.
Description: as §1

| Cell Line | AUC | IC50 [µM] |
| --- | --- | --- |
| 42-MG-BA (glioma, adherent) | 0.898 | > 4 |
| 647-V (bladder, adherent) | 0.984 | > 4 |
| 5637 (bladder, adherent) | 0.977 | > 4 |
| 23132-87 (stomach, adherent) | 0.898 | > 4 |
| A431 (skin, adherent) | 0.953 | > 4 |
| BFTC-905 (bladder, adherent) | 0.847 | 2.36 |
| BICR78 (head and neck, adherent) | 0.859 | > 4 |
| BxPC-3 (pancreas, adherent) | 0.92 | > 4 |
| C-33-A (cervix, adherent) | 0.867 | 3.62 |
| COR-L321 (lung, suspension) | 0.988 | > 4 |
| DU-145 (prostate, adherent) | 0.928 | > 4 |
| HT-1080 (fibrosarcoma, adherent) | 0.988 | > 4 |
| KMS-11 (myeloma, suspension) | 0.704 | 0.851 |
| KP-1N (pancreas, adherent) | 0.944 | > 4 |
| MHH-CALL-2 (B-cell leukaemia, suspension) | 0.997 | > 4 |
| MOLM-16 (acute myeloid leukaemia, suspension) | 0.834 | 2.17 |
| MOLT-16 (T-cell lymphoblastic leukaemia, suspension) | 0.986 | > 4 |
| NCI-H146 (small cell lung carcinoma, suspension) | 0.993 | > 4 |
| NCI-H835 (lung carcinoid, suspension) | 0.968 | > 4 |
| NCI-H1105 (small cell lung carcinoma, suspension) | 0.977 | > 4 |
| NCI-H1341 (small cell lung carcinoma, suspension) | 0.799 | 1.6 |
| NCI-H1693 (lung adenocarcinoma, adherent) | 0.934 | > 4 |
| NCI-H2023 (lung adenocarcinoma, adherent) | 0.901 | > 4 |
| OACM5-1 (oesophagus, semi-adherent) | 0.856 | 3.88 |
| RCH-ACV (B-cell leukaemia, suspension) | 0.901 | 3.57 |
| RH-18 (rhabdomyosarcoma, adherent) | 0.913 | > 4 |
